The record followed here is PubChem BioAssay AID1508642 (National Center for Advancing Translational Sciences (NCATS), 2021).

SMILES strings stand for the structures. In all, about 43,000 compounds went through this assay and about 200 (0.47%) were called active. About 12% were inconclusive and are not listed. The call rests on the fitted dose curve; in most records, active means well fitted cell-killing curve with a large enough effect; inconclusive means small, poorly fitted or top-dose-only effect, or effect the other way; inactive means flat fitted curve, though single readings scatter. The list shows a part of the results.
On the % scale 0 is the no-effect control and ±100 the full control effect.

The assay in a line: Cell viability qHTS assay in S16 Pmp22-F2sN cells. Further: nearly all actives have a fitted effect of over 65% in size. The settings on record: S16 Pmp22-F2sN Schwann cells (luciferase reporters placed in the Pmp22 gene) viability, CellTiter-Glo, 24 h; series mostly up to 57.5 µM; activity change, negative = cytotoxicity: at the top concentration. The essentials: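 Rat S16 Schwann reporter line, 24 h treatment with library compounds delivered at 23 nL per well. Cell viability by CellTiter-Glo luminescence.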
(In qHTS, concentration-response curves come from the screen itself.)
For the molecule `O=C(Nc1sc2c(c1C(=O)NCc1ccco1)CCCC2)c1cc(=O)c2ccccc2o1`, the “activity change, negative = cytotoxicity” value is inactive: 1.79%.
Next, `Cc1ccc(CNC(=O)CC(C)S(=O)(=O)c2cc3c(cc2C)NC(=O)CO3)cc1` (stereo not drawn): inactive: 7.84%; `CSC1=NC2(CCN(C(=O)NC3CCCCC3)CC2)N=C1c1ccc(C)c(C)c1`: inactive: -14.2%; `Cc1ccc(NC(=O)CCc2nnc3n(C)c(=O)c4sccc4n23)cc1C`: inactive: -4.55%.
Next, `CC(C)Oc1ccc(C(=O)N(Cc2ccco2)c2ccccn2)cc1`: inactive: 0.322%; `Cc1ccc(C2c3[nH]c4ccccc4c3CCN2C(=O)c2cccc(C)c2)cc1` (stereo not drawn): inactive: 5.02%; `CC(C)Nc1ccc(-c2nc(-c3ccco3)no2)cc1[N+](=O)[O-]`: inactive: -9.86%.
`CCOCCCNC(=O)C(c1ccc(C)cc1)N(Cc1ccc2c(c1)OCO2)C(=O)c1ccc(NC(C)=O)cc1` (stereo not drawn): the “activity change, negative = cytotoxicity” value is inactive: -19%.
Take `Cc1ccc2nc(N3CCC(C(=O)N4CCN(c5cccc(Cl)c5)CC4)CC3)[nH]c2c1`: the “activity change, negative = cytotoxicity” value is inactive: -16.5%.
As for `CCC(C)NC(=O)c1ccccc1NC(=O)CN1C(=O)c2cccc3cccc1c23` (stereo not drawn), the “activity change, negative = cytotoxicity” value was inactive: 18.2%.
Next, `COc1ccc(-c2cc(C(=O)OC(C)C(=O)c3ccccc3)c3cccc(Cl)c3n2)cc1` (stereo not drawn): inactive: 22.8%; `c1ccc(Nc2c(-c3c[nH]c4ccccc34)nc3ccccn23)cc1`: inactive: -7.63%.
Next, `Cc1cccc(NC(=O)c2nnn(CC(=O)Nc3ccc(C(C)C)cc3)c2N)c1C`: inactive: 0.26%; `COc1cc(C(=O)NCC(c2cccs2)S(=O)(=O)c2ccc(F)cc2)cc(OC)c1OC` (stereo not drawn): inactive: 9.08%.
For `CCOC(=O)c1c(C)[nH]c(CCC(=O)Nc2ccc(C)c(F)c2)c1C` the value was inactive: -0.435%; for `CC(C)NC(=O)CN1C(=O)COc2ccc(S(=O)(=O)N3CCCCCC3)cc21`, inactive: 11.4%; for `COc1cc2cc(CNc3ccc(C)cc3)c(=O)n(CC(=O)Nc3ccc(F)cc3F)c2cc1OC`, inactive: -1.48%.
Regarding `Cc1ccc(CSc2nnc(CCNC(=O)OC(C)(C)C)o2)cc1`, the “activity change, negative = cytotoxicity” value was inactive: 14.5%.
Regarding `COc1ccc(OC)c(NC(=O)CSc2nnc3ccc4ccccc4n23)c1`, the “activity change, negative = cytotoxicity” value is inactive: 1.43%.
For `O=C(NCc1ccccc1Cl)c1ccc(CSCc2ccccc2Cl)o1` the value was inactive: -4.67%.
Next, `CCC(Sc1nc2cc(OC)c(OC)cc2c2nc(-c3ccccc3)nn12)C(=O)Nc1cccc(C)c1` (stereo not drawn): inactive: -0.356%; `COc1ccc(NC(=O)C2=C(C)Nc3nc(SCc4ccccc4C)nn3C2c2cc(OC)c(O)c(OC)c2)cc1` (stereo not drawn): inactive: 1.79%; `Cc1ccc(-n2ncc(C(=O)NCc3cccs3)c2C2CCN(C(=O)OC(C)(C)C)CC2)c(C)c1`: inactive: -22.4%.
For `CN(Cc1ccccc1)C(=O)Nc1ccc2c(c1)N(C)C(=O)c1ccccc1S2` the value was inactive: -19.5%; for `CCc1ccc(NC(=O)CCn2nc(-c3ccccc3OC)c3c(C)cc(C)nc32)cc1`, inactive: -5.64%; for `COc1ccc(-c2noc(CC(=O)Nc3ccc(F)cc3F)n2)cc1`, inactive: -0.881%.
Take `Cc1ccc(-c2nnc(Nc3cccc(O)c3)c3ccccc23)cc1S(=O)(=O)N1CCOCC1`: the “activity change, negative = cytotoxicity” value is inactive: 10.8%.
Next, `COc1ccccc1OC(C)C(=O)Nc1ccc(-c2nc3ccccc3s2)cc1` (stereo not drawn): inactive: -0.413%; `CCC(C(=O)NCc1ccccc1)n1nc(C)c2sc3ccccc3c2c1=O` (stereo not drawn): inactive: -4.97%.
As to `COc1ccc(NC(=O)CCn2c(=O)c3cccn3c3cccnc32)c(OC)c1`, the “activity change, negative = cytotoxicity” value is inactive: 4.86%.
As for `COC(=O)c1cc(S(=O)(=O)N2CCN(c3cccc(C)c3)C(C)C2)cn1C` (stereo not drawn), the “activity change, negative = cytotoxicity” value is inactive: -1.88%.
Turning to `NC(=O)c1ccccc1NC(=O)c1ccc(-c2ccc(Br)cc2)o1`, the “activity change, negative = cytotoxicity” value was inactive: -0.798%.
For `O=C(Cn1ncc2c3ccccc3n(Cc3ccc(Cl)cc3)c2c1=O)NCc1ccccn1` the value was inactive: 1.56%.
For the molecule `O=C(CSc1nnc(-c2ccccc2)o1)c1cccc([N+](=O)[O-])c1`, the “activity change, negative = cytotoxicity” value is inactive: 1.11%.
For the molecule `CCOC(=O)c1c(C)[nH]c(CCC(=O)NCc2ccc(CC)cc2)c1C`, the “activity change, negative = cytotoxicity” value is inactive: -6.08%.
For `CC(=O)c1cccc(NC(=O)Cn2nc(C)n3cccc3c2=O)c1` the value was inactive: -2.24%; for `CCN(CC)CCCNC(=O)c1ccc2c(=O)n(CCc3ccccc3)c(=O)[nH]c2c1`, inactive: -5.92%; for `CCc1ccc(-n2cnc3cc(C(=O)NCc4ccc(C)cc4)ccc32)cc1`, inactive: -4.39%.
For `CC(=O)N1CCCc2cc(S(=O)(=O)N3CCC(C(=O)Nc4cccc(Cl)c4C)CC3)ccc21` the value was inactive: -29%; for `CCN(CC)C(=O)c1c(-c2ccccc2)c(-c2ccccc2)nn(C)c1=O`, inactive: 15.4%; for `CCc1ccc(C(=O)c2cn(CC(=O)Nc3cc(C)ccc3C)c3nc(C)ccc3c2=O)cc1`, inactive: 7.82%.
Next, `O=C(CSc1nnc(-c2cccs2)o1)Oc1ccccc1`: inactive: 15.5%; `COc1ccc(N2CCN(C(=O)CCn3nc(C)c(S(=O)(=O)N4CCCC4)c3C)CC2)cc1`: inactive: 15.5%.
With `COc1cc(NC(=O)Cn2c(=O)n(Cc3ccco3)c(=O)c3sc4ccccc4c32)cc(OC)c1`, the “activity change, negative = cytotoxicity” value is inactive: 10.2%.
For `CCN(CC)C(=O)c1sc2c(c1C)c(=O)n(-c1ccc(Cl)c(Cl)c1)c(=O)n2Cc1ccccc1C#N` the value was inactive: -28.7%; for `COCCCNc1oc(/C=C/c2cc(OC)c(OC)c(OC)c2)nc1C#N`, inactive: -12.8%; for `Cc1cc(-c2ccc(C)c(S(=O)(=O)N3CCN(c4cccc(C(F)(F)F)c4)CC3)c2)on1`, inactive: 0.434%.
For `CN(C)c1ccc(-c2nc(-c3cc4cc(Cl)ccc4oc3=O)cs2)cc1` the value was inactive: 4.28%; for `CCc1cccc(NC(=O)CCC(=O)N2CCSc3ccccc32)c1`, inactive: -4.23%.
Consider `Cc1ccc(Oc2c(C(F)(F)F)oc3c(CN4CCC(C)CC4)c(O)ccc3c2=O)cc1`, for which the “activity change, negative = cytotoxicity” value was inactive: 15.2%.
For `Cc1ccc(N2CCN(C(=O)c3c(C)oc4ncn(CC(C)C)c(=O)c34)CC2)c(C)c1`, the “activity change, negative = cytotoxicity” value is inactive: 7.81%.
For `Cc1cccc(NC(=O)CSc2ncc3c(n2)-c2ccccc2N(Cc2ccc(F)cc2)S3(=O)=O)c1C` the value was inactive: 2.97%; for `Cc1ccc(C)c(N2CCN(C(=O)C3CCN(c4nc5ccc(C)cc5[nH]4)CC3)CC2)c1`, inactive: -7.7%.
Consider `COc1ccc(-n2c(=O)c3c(c4cc(OC)ccc4n3C)n(Cc3cccc(OC)c3)c2=O)cc1`, for which the “activity change, negative = cytotoxicity” value is inactive: -15.7%.
On to `COc1ccc(-c2cc3nc(C)c(CCC(=O)Nc4ccccc4C(C)=O)c(C)n3n2)c(OC)c1`, for which the “activity change, negative = cytotoxicity” value is inactive: 0.397%.
Next, `O=C(CCC1N=C2c3ccccc3N=C(SCc3ccc(F)cc3)N2C1=O)NCc1ccc(F)cc1` (stereo not drawn): inactive: -28.7%; `O=C(CCc1nc(CN2CCN(S(=O)(=O)c3ccc(Cl)cc3)CC2)no1)N1CCCCC1`: inactive: -4.02%; `CCc1cccc(C)c1NC(=O)Cn1ccn(-c2cccc(OC)c2)c(=O)c1=O`: inactive: 2.08%.
Consider `Cc1cccc(Cn2c(SCc3ccc(C(=O)NCCc4ccccc4)cc3)nc3ccncc32)c1`, for which the “activity change, negative = cytotoxicity” value was inactive: -16.5%.
Next, `O=C(CSCc1cccc(F)c1)NCc1ccccc1`: inactive: 4.07%; `Fc1cccc(-n2ncc3c2ncn2nc(COc4ccc(Cl)cc4)nc32)c1`: inactive: 6.93%.
For `CCCC1=Nc2cc(C(=O)NCc3ccc(OC)cc3)ccc2Sc2ccc(C)cc21` the value was inactive: -7.28%; for `CN1CCc2c(sc3c2C(=O)NC(c2ccc(OC(=O)c4ccc(C(C)(C)C)cc4)cc2)N3)C1` (stereo not drawn), inactive: 7.71%; for `Cc1nc2scc(C)n2c(=O)c1S(=O)(=O)Nc1ccc(N2CCOCC2)c(Cl)c1`, inactive: -25.8%.
With `CCOc1ccc(C(=O)NCCn2cc(SCC(=O)Nc3ccc4c(c3)OCCO4)c3ccccc32)cc1`, the “activity change, negative = cytotoxicity” value is inactive: -4.47%.
Turning to `CCOc1ccc(-c2nc(CSCC(=O)N3CCN(c4ccc(F)cc4)CC3)c(C)o2)cc1`, the “activity change, negative = cytotoxicity” value was inactive: -24.7%.
For `CCCCn1c2ccc(F)cc2c2nnc(SCCN(CC)CC)nc21` the value was inactive: -7.26%; for `Cc1ccc(CNC(=O)c2c3c(nc4ccccc24)C(=O)N(C2CCCCC2)C3)cc1`, inactive: -5.21%.
For `COc1ccc(NC(=O)c2cc3c(=O)[nH]c4ccccc4c3n2C)cc1Cl` the value was inactive: 5.03%; for `CCCN(C(=O)CCc1nc(-c2ccccc2F)no1)c1ccc(CC)cc1`, inactive: -1.42%.
With `COc1ccc(CC(=O)NCc2nc3cccnc3n2Cc2ccc(F)cc2)cc1OC`, the “activity change, negative = cytotoxicity” value is inactive: -0.0434%.
`CCOc1cc2[nH]c(=O)n(Cc3ccc(C(=O)NCCN(CC)CC)cc3)c(=O)c2cc1OCC`: the “activity change, negative = cytotoxicity” value was inactive: -2.78%.
`COc1ccc(Cl)cc1NC(=O)CSc1nccn1Cc1ccco1`: the “activity change, negative = cytotoxicity” value was inactive: 2.64%.
For `COc1cccc(NC(=O)CSc2nc3ccccc3nc2N2CCOCC2)c1` the value was inactive: 0.467%; for `CCc1ccc(CN2C(=O)c3ccccc3C2C(=O)NCCc2ccc(OC)c(OC)c2)cc1` (stereo not drawn), inactive: -0.173%; for `CN(CC(=O)Nc1cccc(C(F)(F)F)c1)S(=O)(=O)c1ccc2[nH]c3c(c2c1)CCCC3`, inactive: -15.5%.
Next, `CCN(C(=O)c1oc2ccc(S(=O)(=O)N3CCCCCC3)cc2c1C)c1ccccc1`: inactive: -2.98%; `CCOC(=O)c1cccc(NC(=O)CN2C(=O)CC(C)(C)Sc3ccccc32)c1`: inactive: 6.76%.
Next, `Cc1ccc(Nc2c(-c3ccc(N4CCOCC4)cc3)nc3ncccn23)cc1`: inactive: -7.1%.
Consider `CCOC(=O)c1cc(S(=O)(=O)N2CCN(c3ccc(OC)cc3)CC2)[nH]n1`, for which the “activity change, negative = cytotoxicity” value was inactive: -1.49%.
Next, `Cc1cccc(C)c1OCc1nc2c3cnn(-c4cccc(F)c4)c3ncn2n1`: inactive: -5.71%.
For `COc1ccc(CCNC(=O)CCCn2c(=O)c3ccccc3n(Cc3ccccc3C)c2=O)cc1OC` the value was inactive: 5.55%; for `Cc1ccc(-n2ncc(C(=O)NCCN3CCc4ccccc4C3)c2C2CCN(C(=O)OC(C)(C)C)CC2)cc1`, inactive: -18.6%; for `CCCCn1cc(S(=O)(=O)c2ccc(OC)cc2)c(=O)c2cc(F)c(N3CCCC3)cc21`, inactive: 18.8%.
For the molecule `COc1ccccc1CNC(=O)CN1C(=O)COc2ccc(S(=O)(=O)N3CCCCC3)cc21`, the “activity change, negative = cytotoxicity” value is inactive: -0.987%.
As for `O=S(=O)(NCc1cccc(Br)c1)c1ccc(-c2cc(C(F)(F)F)on2)s1`, the “activity change, negative = cytotoxicity” value is inactive: -0.467%.
Next, `Cc1cc(C)cc(N2C(=O)N(CC(=O)c3ccc(Br)cc3)c3ccccc3S2(=O)=O)c1`: inactive: -0.339%.
With `COC(=O)c1sccc1S(=O)(=O)N(CC(=O)NCc1ccc(C)cc1)c1ccc(Cl)cc1`, the “activity change, negative = cytotoxicity” value was inactive: 4.94%.
Next, `COc1ccc(C(=O)Nc2ccc3nc(SCC(=O)N4CCCc5ccccc54)sc3c2)cc1`: inactive: -10.2%; `Cc1cccc(NC(=O)N2CCC(CN3CCc4ccccc4C3)CC2)c1C`: inactive: 0.356%.
For `CCOc1ccc(NC(=O)Cn2cc(C(=O)c3ccc(C)c(C)c3)c(=O)c3cc4c(cc32)OCCO4)cc1` the value was inactive: 3.74%; for `O=C(CSC1=Nc2ccccc2C2=NC(Cc3ccccc3)C(=O)N12)Nc1ccccc1F` (stereo not drawn), inactive: -15.5%.
Turning to `CCOC(=O)NC1(C(F)(F)F)NC(=O)N(c2ccc(C)c(C)c2)C1=O` (stereo not drawn), the “activity change, negative = cytotoxicity” value was inactive: 0.724%.
